Experimental data from publication PMC4492818.
No constants are given. Whether binding was seen depends on the method and setting. Binding seen in cells or lysates may run through a third protein. Some entries that bind do so weakly or less than the wild type. Sequences can lack the tags named with a protein.

Protein sequences, listed by entry. Tags and fused reporters are not part of them.
UniProt P51617: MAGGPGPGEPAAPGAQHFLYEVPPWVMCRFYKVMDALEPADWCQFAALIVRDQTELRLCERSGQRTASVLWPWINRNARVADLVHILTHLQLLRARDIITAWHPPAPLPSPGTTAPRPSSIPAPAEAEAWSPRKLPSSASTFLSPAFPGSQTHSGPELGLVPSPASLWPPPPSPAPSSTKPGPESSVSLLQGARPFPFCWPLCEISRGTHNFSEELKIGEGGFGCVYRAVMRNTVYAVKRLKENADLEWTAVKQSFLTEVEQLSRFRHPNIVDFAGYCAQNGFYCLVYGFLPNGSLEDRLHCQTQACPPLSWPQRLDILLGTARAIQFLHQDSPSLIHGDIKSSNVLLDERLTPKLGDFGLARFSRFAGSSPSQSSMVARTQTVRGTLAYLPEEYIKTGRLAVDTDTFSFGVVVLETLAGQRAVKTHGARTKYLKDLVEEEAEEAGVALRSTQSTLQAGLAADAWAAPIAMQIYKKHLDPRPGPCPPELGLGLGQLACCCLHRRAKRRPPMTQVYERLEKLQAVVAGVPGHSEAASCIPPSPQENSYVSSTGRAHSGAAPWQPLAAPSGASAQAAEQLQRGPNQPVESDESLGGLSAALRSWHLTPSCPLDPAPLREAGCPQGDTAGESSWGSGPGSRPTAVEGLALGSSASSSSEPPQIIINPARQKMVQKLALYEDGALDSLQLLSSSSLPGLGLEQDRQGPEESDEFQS
UniProt Q99836: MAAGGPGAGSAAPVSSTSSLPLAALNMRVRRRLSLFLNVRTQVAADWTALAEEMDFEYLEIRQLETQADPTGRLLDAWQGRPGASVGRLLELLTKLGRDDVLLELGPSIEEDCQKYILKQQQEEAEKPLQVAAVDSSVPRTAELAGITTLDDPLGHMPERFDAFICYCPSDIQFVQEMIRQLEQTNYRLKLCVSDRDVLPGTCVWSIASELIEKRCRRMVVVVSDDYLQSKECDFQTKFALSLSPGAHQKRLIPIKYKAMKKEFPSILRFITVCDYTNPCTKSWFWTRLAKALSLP
UniProt Q13485: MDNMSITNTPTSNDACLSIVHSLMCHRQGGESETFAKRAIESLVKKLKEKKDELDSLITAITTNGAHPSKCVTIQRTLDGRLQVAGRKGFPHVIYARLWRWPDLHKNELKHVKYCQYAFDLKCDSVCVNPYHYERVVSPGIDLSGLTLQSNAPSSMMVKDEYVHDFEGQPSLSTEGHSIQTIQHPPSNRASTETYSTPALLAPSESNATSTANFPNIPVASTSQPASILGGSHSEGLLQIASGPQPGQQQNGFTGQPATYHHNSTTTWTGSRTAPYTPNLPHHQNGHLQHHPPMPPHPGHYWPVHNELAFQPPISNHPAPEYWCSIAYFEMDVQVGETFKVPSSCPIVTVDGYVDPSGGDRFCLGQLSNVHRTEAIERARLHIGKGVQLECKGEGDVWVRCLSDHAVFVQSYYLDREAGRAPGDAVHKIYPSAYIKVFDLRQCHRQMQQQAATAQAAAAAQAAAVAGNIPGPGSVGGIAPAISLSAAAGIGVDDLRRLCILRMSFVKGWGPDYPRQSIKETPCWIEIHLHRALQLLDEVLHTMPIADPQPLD

Experiments:
Experiment in all cases: co-IP; plasmids co-transfected into HEK293 cells; lysates (PBS, 0.5% Triton X-100, 20 mM HEPES pH 7.4, 150 mM NaCl) immunoprecipitated with anti-HA, anti-Myc or the indicated antibodies and protein A/G agarose at 4°C for 12 h; immunoblot with anti-Myc or anti-HA
[1] = target: Flag-IRAK1 (UniProt P51617)
[2] = target: Flag-MyD88 (UniProt Q99836)
[3] = target: T1, HA-Pellino-1 (full-length Pellino-1) (UniProt Q96FA3)
T1 sequence: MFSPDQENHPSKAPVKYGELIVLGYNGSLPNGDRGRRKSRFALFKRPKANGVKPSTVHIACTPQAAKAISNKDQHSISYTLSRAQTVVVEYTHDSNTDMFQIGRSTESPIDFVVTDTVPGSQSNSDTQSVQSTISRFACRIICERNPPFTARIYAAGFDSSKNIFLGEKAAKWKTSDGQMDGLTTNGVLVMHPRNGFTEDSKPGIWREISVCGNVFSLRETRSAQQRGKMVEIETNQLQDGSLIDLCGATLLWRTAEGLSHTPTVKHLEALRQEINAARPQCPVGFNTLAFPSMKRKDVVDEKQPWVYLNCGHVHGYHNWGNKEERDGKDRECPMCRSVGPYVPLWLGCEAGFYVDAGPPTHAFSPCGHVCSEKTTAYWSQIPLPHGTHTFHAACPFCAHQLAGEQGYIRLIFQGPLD

[4] = target: HA-Smad4 (UniProt Q13485)

B1: Myc-Smad6 422-441 (domain or fragment, UniProt O43541 422-441)
chain: GRALVVRKVPPGYSIKVFDF
How did the binding [1] turn out when B1 was run?
Its binding is “no binding”.

What about the binding [2] of the same binder?
Its binding is “no binding”.

And the binding [3]?
The binding was “binds”.

What about the binding [4] of the same binder?
The binding was “no binding”.
